Data: article PMC9597577, “Mutant Ras and inflammation-driven skin tumorigenesis is suppressed via a JNK-iASPP-AP1 axis” (Cell Reports, 2022)
These are yes or no findings as the source states them, for the method shown. For part of these data: In cells and extracts the contact can be indirect. Some entries that bind do so weakly or less than the wild type. Each block holds one binder with its values, some of them ahead of it.

Key:
[1] = target: T1, iASPP (endogenous, HaCaT) (human (endogenous in HaCaT)) (UniProt Q8WUF5); assay: co-IP; nuclear fraction lysates from subcellular fractionation of HaCaT and IMOK keratinocytes; anti-iASPP LX128.5 or LX49.3; endogenous proteins
T1 sequence: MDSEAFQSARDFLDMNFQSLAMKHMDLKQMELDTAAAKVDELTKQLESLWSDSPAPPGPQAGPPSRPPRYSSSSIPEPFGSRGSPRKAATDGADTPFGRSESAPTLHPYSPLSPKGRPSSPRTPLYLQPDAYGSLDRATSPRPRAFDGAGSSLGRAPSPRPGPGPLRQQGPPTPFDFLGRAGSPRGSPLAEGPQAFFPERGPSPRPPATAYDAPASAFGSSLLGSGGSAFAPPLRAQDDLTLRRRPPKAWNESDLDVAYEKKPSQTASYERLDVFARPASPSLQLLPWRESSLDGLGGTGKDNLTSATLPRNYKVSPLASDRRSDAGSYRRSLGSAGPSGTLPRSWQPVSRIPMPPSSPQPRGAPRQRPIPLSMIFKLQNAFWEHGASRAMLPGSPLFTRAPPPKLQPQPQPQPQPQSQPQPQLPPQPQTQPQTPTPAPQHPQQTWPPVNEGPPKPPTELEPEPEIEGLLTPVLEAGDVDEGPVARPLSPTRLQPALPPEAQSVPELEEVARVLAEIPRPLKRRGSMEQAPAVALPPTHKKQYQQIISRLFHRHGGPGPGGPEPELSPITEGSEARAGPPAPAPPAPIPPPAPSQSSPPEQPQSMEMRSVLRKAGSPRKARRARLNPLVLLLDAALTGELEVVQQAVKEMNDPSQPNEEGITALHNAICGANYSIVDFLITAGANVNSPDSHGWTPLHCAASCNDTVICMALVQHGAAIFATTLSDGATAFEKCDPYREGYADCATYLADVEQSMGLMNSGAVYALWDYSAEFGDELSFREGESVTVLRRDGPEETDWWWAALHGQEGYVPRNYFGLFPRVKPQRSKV

[2] = target: T1, iASPP (endogenous, HaCaT) (human (endogenous in HaCaT)); assay: co-IP; unfractionated lysates of untreated HaCaT cells (also UV-irradiated cells pre-treated with JNK inhibitor); anti-iASPP LX49.3 or LX128.5, or anti-JunD, with protein G agarose overnight at 4°C; endogenous proteins
[3] = target: T1, iASPP (endogenous, HaCaT) (human (endogenous in HaCaT)); assay: condition: only UV-treated HaCaT cells (also with DMSO or p38 inhibitor); co-IP; lysates of UV-irradiated HaCaT cells (also with DMSO or p38 inhibitor); anti-iASPP LX49.3 or LX128.5, or anti-JunD, with protein G agarose overnight at 4°C; endogenous proteins
[4] = target: T2, JunD (endogenous, HaCaT) (human (endogenous in HaCaT)) (UniProt P17535); assay: co-IP; lysates of UV-irradiated HaCaT cells (also with DMSO or p38 inhibitor); anti-iASPP LX49.3 or LX128.5, or anti-JunD, with protein G agarose overnight at 4°C; endogenous proteins
T2 sequence: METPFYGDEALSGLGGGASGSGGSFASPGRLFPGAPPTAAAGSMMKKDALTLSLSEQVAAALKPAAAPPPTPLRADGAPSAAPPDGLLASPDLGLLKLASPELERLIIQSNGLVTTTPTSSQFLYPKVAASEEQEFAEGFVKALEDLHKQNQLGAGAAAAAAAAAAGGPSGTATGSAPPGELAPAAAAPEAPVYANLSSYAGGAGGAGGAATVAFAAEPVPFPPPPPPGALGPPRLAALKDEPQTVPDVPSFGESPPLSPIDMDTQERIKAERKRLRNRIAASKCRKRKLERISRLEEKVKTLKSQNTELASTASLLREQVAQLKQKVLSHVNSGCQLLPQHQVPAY

[5] = target: T2, JunD (endogenous, HaCaT) (human (endogenous in HaCaT)); assay: co-IP; unfractionated lysates of untreated HaCaT cells (also UV-irradiated cells pre-treated with JNK inhibitor); anti-iASPP LX49.3 or LX128.5, or anti-JunD, with protein G agarose overnight at 4°C; endogenous proteins
[6] = target: T3, ASPP1 CTD (887–1090) (UniProt Q96KQ4); assay: ITC; VP-ITC; 450 μM peptide titrated to 30 μM ASPP family CTD at 12°C; 25 mM HEPES pH 7.5, 150 mM NaCl, 500 μM TCEP; AB hetero association model; both purified
T3 sequence: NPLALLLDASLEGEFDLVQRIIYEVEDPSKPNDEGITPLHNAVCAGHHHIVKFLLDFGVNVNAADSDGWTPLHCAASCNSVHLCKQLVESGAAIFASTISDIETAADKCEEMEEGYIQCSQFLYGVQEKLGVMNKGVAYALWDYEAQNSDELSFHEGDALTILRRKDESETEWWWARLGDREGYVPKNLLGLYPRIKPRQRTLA

[7] = target: T4, iASPP CTD N813A Y814A (625–828) (UniProt Q8WUF5); assay: as above
T4 sequence: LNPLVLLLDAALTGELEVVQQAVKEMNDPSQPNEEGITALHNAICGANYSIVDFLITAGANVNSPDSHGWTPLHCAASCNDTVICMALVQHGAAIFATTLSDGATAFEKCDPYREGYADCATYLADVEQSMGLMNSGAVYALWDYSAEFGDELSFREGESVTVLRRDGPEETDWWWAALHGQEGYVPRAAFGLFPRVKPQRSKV

[8] = target: T3, ASPP1 CTD (887–1090); assay: ITC; VP-ITC; 450 µM peptide (syringe) titrated to 30 µM ASPP family CTD (cell), 25 steps of 10 µL, 12 °C; 25 mM HEPES pH 7.5, 150 mM NaCl, 500 µM TCEP; AB hetero association model (SEDPHAT); both purified
[9] = target: T4, iASPP CTD N813A Y814A (625–828); assay: as above

binding [1]: binds
binding [2]: binds
binding [3]: no binding
B1: JunD (endogenous, HaCaT) (protein, UniProt P17535 1-347)
chain: METPFYGDEALSGLGGGASGSGGSFASPGRLFPGAPPTAAAGSMMKKDALTLSLSEQVAAALKPAAAPPPTPLRADGAPSAAPPDGLLASPDLGLLKLASPELERLIIQSNGLVTTTPTSSQFLYPKVAASEEQEFAEGFVKALEDLHKQNQLGAGAAAAAAAAAAGGPSGTATGSAPPGELAPAAAAPEAPVYANLSSYAGGAGGAGGAATVAFAAEPVPFPPPPPPGALGPPRLAALKDEPQTVPDVPSFGESPPLSPIDMDTQERIKAERKRLRNRIAASKCRKRKLERISRLEEKVKTLKSQNTELASTASLLREQVAQLKQKVLSHVNSGCQLLPQHQVPAY

binding [5]: binds
B2: iASPP (endogenous, HaCaT) (protein, UniProt Q8WUF5 1-828)
chain: MDSEAFQSARDFLDMNFQSLAMKHMDLKQMELDTAAAKVDELTKQLESLWSDSPAPPGPQAGPPSRPPRYSSSSIPEPFGSRGSPRKAATDGADTPFGRSESAPTLHPYSPLSPKGRPSSPRTPLYLQPDAYGSLDRATSPRPRAFDGAGSSLGRAPSPRPGPGPLRQQGPPTPFDFLGRAGSPRGSPLAEGPQAFFPERGPSPRPPATAYDAPASAFGSSLLGSGGSAFAPPLRAQDDLTLRRRPPKAWNESDLDVAYEKKPSQTASYERLDVFARPASPSLQLLPWRESSLDGLGGTGKDNLTSATLPRNYKVSPLASDRRSDAGSYRRSLGSAGPSGTLPRSWQPVSRIPMPPSSPQPRGAPRQRPIPLSMIFKLQNAFWEHGASRAMLPGSPLFTRAPPPKLQPQPQPQPQPQSQPQPQLPPQPQTQPQTPTPAPQHPQQTWPPVNEGPPKPPTELEPEPEIEGLLTPVLEAGDVDEGPVARPLSPTRLQPALPPEAQSVPELEEVARVLAEIPRPLKRRGSMEQAPAVALPPTHKKQYQQIISRLFHRHGGPGPGGPEPELSPITEGSEARAGPPAPAPPAPIPPPAPSQSSPPEQPQSMEMRSVLRKAGSPRKARRARLNPLVLLLDAALTGELEVVQQAVKEMNDPSQPNEEGITALHNAICGANYSIVDFLITAGANVNSPDSHGWTPLHCAASCNDTVICMALVQHGAAIFATTLSDGATAFEKCDPYREGYADCATYLADVEQSMGLMNSGAVYALWDYSAEFGDELSFREGESVTVLRRDGPEETDWWWAALHGQEGYVPRNYFGLFPRVKPQRSKV
binding [4]: no binding (condition: UV-treated HaCaT cells)

Binder: WLKPAAAPPPTPLRADGAPSA [JunD peptide (…)]
binding [6]: no binding (tested: 450 μM peptide titrated to 30 μM CTD)
binding [7]: no binding (tested: 450 μM peptide titrated to 30 μM CTD)
binding [8]: no binding (tested: 450 µM peptide titrated to 30 µM CTD)
binding [9]: no binding (tested: 450 µM peptide titrated to 30 µM CTD)
